From patent US20080124340A1

Columns and labels:
[1] = target: human erythropoietin receptor (huEpoR), cell surface expressed (human) (UniProt P19235); test: cell-based or functional assay
[2] = target: cynomolgus monkey EpoR (cynoEpoR) (cynomolgus monkey); test: SPR, Biacore T100; scFv-Fc captured by anti-human IgG Fc on CM5 chip, EpoR as analyte
[3] = target: T1, soluble human erythropoietin receptor protein (huEpoR) (human) (UniProt P19235); test: as above
T1 sequence (looked up): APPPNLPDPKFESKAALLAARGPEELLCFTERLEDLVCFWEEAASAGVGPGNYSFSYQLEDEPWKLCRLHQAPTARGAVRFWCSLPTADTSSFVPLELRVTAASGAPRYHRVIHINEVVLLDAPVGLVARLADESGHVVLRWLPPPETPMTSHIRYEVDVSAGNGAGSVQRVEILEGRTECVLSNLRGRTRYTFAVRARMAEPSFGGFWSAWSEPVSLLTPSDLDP

- Average EC50, UT-7-luciferase assay [1]: 1.52 nM
- Kd [2]: 265 nM
- koff [2]: 0.0504 s⁻¹
- kon [2]: 190000 M⁻¹ s⁻¹
- Kd [3]: 487 nM
- koff [3]: 0.0629 s⁻¹
- kon [3]: 129000 M⁻¹ s⁻¹
B1: clone 29 scFv-Fc protein (Fc fusion, part only; not given: scFv linker and IgG1 Fc, not shown: a dimerising Fc or GST)
scFv, part: [letters of about 100 residues omitted]GGHMTTVTRDAFDIWGQGTMVTVSASSELTQDPAVSVALGQTIRITCQGDSLRYYYATWYQQKPGQAPILVIYGQNNRPSGVPDRFSGSSSGNTASLTITGAQAEDEADYYCGTWDSSVSASWVFGGGTKVTVL
